Measurements: the supplement of paper PMC4466236
The full ranking holds about 33,000 sequences; the median of “E-score (dimensionless, -0.5 to 0.5)” is about -0.058, and the highest 2% start at about 0.35. The list shows a part of the results.

Tested on: MvaT
Test: PBM 8-mer E-score (mean of HK and ME arrays) (E-score (dimensionless, -0.5 to 0.5)); higher = stronger relative binding preference; most listed sequences are background and not binding sites
Summary of the method: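 Full-length P. aeruginosa MvaT carrying an N-terminal glutathione S-transferase tag was tested by protein binding microarray following a previously described protocol. Two universal double-stranded 60-mer arrays, ME and HK, were used, each with a constant 25-mer primer region and a variable 35-mer region covering all 8-mers. The rank-based E-score is the mean of the two arrays, parsed with a custom script. Its range runs from -0.5 to 0.5 for each 8-mer.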

Row | Sequence | PBM 8-mer E-score
1 | CCGACGGA | -0.26
2 | GTAGGACA | -0.0384
3 | TCACGTGA | -0.00307
4 | GTCCCAAA | 0.121
5 | CTAACTAC | 0.187
6 | CAGGCTCG | -0.325
7 | GGAACAAA | 0.0729
8 | GAAAATTA | 0.304
9 | GCGACTCA | -0.247
10 | AGGCGAGA | -0.0992
11 | AGAATGAG | -0.0894
12 | ACAAGAAA | 0.0439
13 | ACCAGGAC | -0.0791
14 | GACACAAA | 0.157
15 | CCTTTCTA | -0.107
16 | CGTAGGAC | -0.118
17 | AATCCATA | 0.164
18 | CGCGATAC | -0.118
19 | CGGAATCC | -0.157
20 | CTCGTGCA | -0.141
21 | CGACTAGA | -0.203
22 | CCAGGCTA | -0.159
23 | ACTCACCG | -0.0979
24 | CCACGTCG | -0.195
25 | AGAATCAC | -0.133

Row | Sequence | PBM 8-mer E-score
26 | GCTTACTA | -0.131
27 | ACAACGGG | -0.0207
28 | AAAGCTCA | -0.146
29 | AGACAATC | 0.049
30 | GAAACCCA | -0.213
31 | CTTAACAA | 0.166
32 | AGTCCCGG | -0.245
33 | AGCTGCGG | -0.194
34 | GCGCTATA | 0.165
35 | CACGTTAA | 0.163
36 | TGAGACCA | -0.135
37 | ATCTGTTG | -0.0508
38 | CTGCACGC | -0.123
39 | AAGCCTAG | -0.113
40 | ACAGATCG | -0.048
41 | AGTAGAGA | 0.0385
42 | CTAGGACC | -0.224
43 | CCCGCGTA | -0.177
44 | CTCGGTAC | -0.0775
45 | TACCGGAA | -0.14
46 | CCCGACAA | -0.168
47 | AGTATAAA | 0.381
48 | CGTCTGTA | -0.0521
49 | GCGCTCAC | -0.258
50 | ACAATGGG | 0.0959

Row | Sequence | PBM 8-mer E-score
51 | GAGCGGGC | -0.324
52 | AGGATGAA | -0.15
53 | ATGGGCAC | -0.0848
54 | CAAAGCAA | 0.0614
55 | CGAGCGGC | -0.134
56 | CGATGCCG | -0.167
57 | CCCATCCA | -0.212
58 | GCCGGCCA | -0.205
59 | ACTCAACC | -0.0486
60 | GAGCTAAC | -0.187
61 | AGTCAGTC | -0.156
62 | AATTCCGG | 0.0407
63 | ACCCCAAT | -0.055
64 | ACGAACCC | -0.169
65 | CCGAAGAA | 0.0125
66 | TATACTCA | 0.29
67 | AGTCAGTA | 0.0779
68 | ATAATTTC | 0.386
69 | GCTCCTCA | -0.294
70 | ATAGGAAA | 0.131
71 | AGTCCTTC | -0.212
72 | GCCAAACC | -0.0379
73 | ATCCTATC | -0.0369
74 | GTGAGACA | -0.0468
75 | TCTGTCAA | -0.142

Row | Sequence | PBM 8-mer E-score
76 | ATGTCCGC | -0.087
77 | CTGTCTGA | -0.172
78 | GAATTATC | 0.147
79 | CACAAAAC | 0.045
80 | CCCCATCC | -0.324
81 | TTAGATAA | 0.261
82 | CGTGCATA | 0.281
83 | ATAAGGTG | 0.105
84 | GACATCGC | -0.221
85 | ATGGTCCA | -0.0412
86 | TCGGACAA | -0.132
87 | CCCTAGGA | -0.335
88 | AGGTACAT | 0.0417
89 | CTCGTATC | -0.166
90 | CGGTTTCC | -0.194
91 | CAACAGTC | -0.128
92 | AATCACGA | -0.0277
93 | ACACCGAT | 0.0193
94 | CTCGCGTC | -0.0727
95 | CAATATAC | 0.386
96 | AGTTGACA | 0.135
97 | ACCGCATA | 0.0599
98 | CCGGCGTC | -0.248
99 | CGTGCTTA | 0.0775
100 | ACTATTCT | 0.208

Row | Sequence | PBM 8-mer E-score
101 | GCCATCCC | -0.385
102 | CCTACATC | -0.0297
103 | GCTCATCA | -0.237
104 | ACAGACAC | 0.0789
105 | AGAATTGC | 0.0325
106 | CAAGCTGC | -0.284
107 | CCAAGGAC | -0.193
108 | CAATAACA | 0.283
109 | AGTGCTAC | -0.0841
110 | AGAACGCA | -0.109
111 | TCGATCAA | 0.0431
112 | TGAGCAAA | 0.0711
113 | ATGGAGAC | -0.0433
114 | GAGCCCAA | -0.212
115 | CATGCACC | -0.0676
116 | CTCGAGTC | -0.187
117 | ATTATATC | 0.444
118 | GGGTTGCA | -0.0596
119 | AAGATTGC | 0.0483
120 | CTGCGTGA | -0.129
121 | GGTATGAA | 0.0836
122 | AAAGTTAT | 0.36
123 | CCAGATAG | -0.154
124 | CGGTATTC | -0.0073
125 | AAGCTATA | 0.196

Row | Sequence | PBM 8-mer E-score
126 | GTTGCGTA | -0.0344
127 | CGAAATAC | 0.0434
128 | CGTAACGC | -0.176
129 | AGGTCAAG | -0.222
130 | CCCGCTTA | 0.00273
131 | GCAGCTCC | -0.265
132 | CAGCCATG | -0.163
133 | AGCAAATA | 0.238
134 | GGCTCTAA | 0.00956
135 | CAAGGGTC | -0.162
136 | GGTTAGAA | -0.0252
137 | TACTAGAA | 0.163
138 | AACGGAGT | -0.0613
139 | ACGTAAGC | -0.199
140 | CGAGGTGC | -0.199
141 | GCTAGCTA | -0.232
142 | ATCTCGTA | -0.0845
143 | ACGCAGAG | -0.286
144 | GGTTAAGA | -0.0299
145 | AGTGTGGG | 0.00874
146 | GGCGATTA | -0.00168
147 | AGCAAAGG | -0.128
148 | AATGCTAA | 0.219
149 | CAGGCGAC | -0.0385
150 | ATTTCGAA | 0.268

Row | Sequence | PBM 8-mer E-score
151 | CTTGTCCC | -0.21
152 | GAAACTCC | -0.166
153 | CTTTTATC | 0.137
154 | TCAGATCA | -0.146
155 | GTACGAGA | -0.126
156 | ACATGACC | 0.0083
157 | AGTAAGAC | 0.0824
158 | GGTGAAAC | -0.0465
159 | CATCCACA | 0.00998
160 | CGACCATC | -0.206
161 | AACTTGAG | 0.045
162 | ATGTGCTA | 0.0602
163 | GTCCCACA | -0.0746
164 | AGTAACTC | 0.0799
165 | ATCGAAGG | -0.146
166 | GTGTGAAA | -0.0522
167 | GTAGTACA | 0.0678
168 | ATCACGAT | -0.0508
169 | ACGCTAAG | -0.0688
170 | GGACAGGA | -0.166
171 | GGCAGATA | 0.0348
172 | CCCACCGA | -0.171
